± gives the uncertainty stated by the source. The full ranking holds about 9,900 compounds; the median of “viability index relative to DMSO control” is about 1, and the lowest 2% start at about 0.85. Some of the results follow.

This test relates to Plasmodium falciparum NF54 stage V gametocytes. As to the kind of experiment: viability index relative to DMSO control (fraction); higher = less gametocyte killing. To be noted: 2.5 µM, library set: Broad Institute DOS, incubation time: 72 h. In short, it runs like this:
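Viability index is the count of red-stained particles in a well divided by the plate mean of solvent-only wells. Particles of 20–70 µm2 were counted in one imaged field per well after one to two hours with 3 µl of 2.5 µM MitoTracker Red CMXRos and 0.13% saponin. Before staining, P. falciparum NF54 stage V gametocytes in serum-free medium (0.75% gametocytemia, 1.25% hematocrit, 10 µl, 1,536-well plates) were kept with compound at 2.5 µM for 72 hr at 37°C under low oxygen.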
`COc1ccc(S(=O)(=O)Nc2ccc3c(c2)C(=O)N([C@H](C)CO)C[C@@H](C)[C@@H](CN(C)C(=O)Nc2c(C)noc2C)OCCCC[C@@H](C)O3)cc1`: the viability index is 1.05 ± 0.11.
Next, `CN(C)C(=O)c1ccc(-c2ccc([C@@H]3[C@@H](CO)N4C(=O)CN(C(=O)CC5CC5)C[C@@H]34)cc2)cc1`: 1.02 ± 0.062; `Cc1noc(C)c1S(=O)(=O)N(C)C[C@@H]1OCc2ccccc2-c2c(n(C)c3ccccc23)C(=O)N([C@H](C)CO)C[C@H]1C`: 1.001 ± 0.0088; `O=C(C[C@H]1CC[C@@H]2[C@H](COC[C@H](O)CN2Cc2nccs2)O1)NCc1ccccc1Cl`: 1.086 ± 0.0099.
Next, `O=C(Nc1ccc(C(F)(F)F)cc1)Nc1ccc2c(c1)[C@@H]1C[C@H](CC(=O)N3CCc4ccccc4C3)O[C@H](CO)[C@@H]1O2`: 0.926 ± 0.093.
The same measure for `CC(C)[C@H]1C(=O)NCC/C=C/C[C@H](C)Oc2ccccc2C(=O)N1C.CC(C)[C@H]1C(=O)NCC/C=C\C[C@H](C)Oc2ccccc2C(=O)N1C`: 1.03 ± 0.043; for `COc1ccc2c3c([nH]c2c1)[C@@H](CO)NC[C@]31CN(C1)S(=O)(=O)c1cccs1`: 0.972 ± 0.055; for `COCC(=O)N1CC(=O)N2[C@@H](CO)[C@H](c3ccc(-c4ccccc4F)cc3)[C@@H]2C1`: 1.06 ± 0.056.
In turn, `CCCNC(=O)N1CC2(C1)[C@H](c1ccccc1)[C@@H](CO)N2Cc1ccc(Cl)cc1` returned a viability index of 1.08 ± 0.042.
Next, `CCS(=O)(=O)Nc1ccc2c(c1)C(=O)N(C)C[C@@H](OC)[C@H](C)CN(CC1CCCCC1)[C@@H](C)CO2`: 1.05 ± 0.011.
Next, `O=C1C[C@H](c2ccccc2)C(=O)N[C@@H](c2ccc(F)cc2)C/C=C\CCN1`: 0.985 ± 0.024; `O=C1CNC[C@@H]2[C@H](c3ccc(C#CC4CCCCC4)cc3)[C@@H](CO)N12`: 1.06 ± 0.067.
Next, `COc1ccc2c3c([nH]c2c1)[C@H](CO)N(C[C@]31CN(C1)S(=O)(=O)c1ccccc1)C(=O)c1cnccn1`: 1.01 ± 0.034; `CCS(=O)(=O)N1CCCCN2[C@H](C1)[C@H](c1ccc(C#Cc3ccccn3)cc1)[C@@H]2CO`: 1.058 ± 0.0083.
Compound `COc1ccc2c3c([C@H](CO)N(Cc4ccccc4Cl)C[C@]33CN(C3)C(=O)CN(C)C)n(C)c2c1` had a viability index of 0.782 ± 0.042.
Next, `COc1cccc(S(=O)(=O)N2CC[C@@H]3[C@H](CO)Nc4ccc(C#Cc5cccnc5)cc4[C@@H]32)c1`: 1.06 ± 0.03; `C[C@H]1CCCn2nncc2COCCNC1=O`: 1.01 ± 0.021.
`COc1ccc2c3c([nH]c2c1)[C@@H](CO)N(C[C@]31CCN(CC1)C(=O)c1ccncc1)C(=O)C1CC1` showed a viability index of 0.928 ± 0.018.
The same measure for `C[C@@H]1CCCCO[C@@H](CN(C)Cc2ccc(C(=O)O)cc2)[C@H](C)CN([C@H](C)CO)C(=O)c2cc(N(C)C)ccc2O1`: 1.09 ± 0.15.
The same measure for `COCC(=O)N1CC(=O)N2[C@H](CO)[C@@H](c3ccc(-c4ccccc4F)cc3)[C@@H]2C1`: 1.07 ± 0.083; for `COc1ccc(CN2C[C@H](O)COC[C@H]3O[C@@H](CC(=O)N(C)C)CC[C@@H]32)cc1`: 1.08 ± 0.0093.
Next, `COc1cccc(CN2C[C@@H]3N[C@H](C2)[C@H]3c2ccc(-c3ccccc3C)cc2)c1`: 1.05 ± 0.12; `COc1ccccc1-c1cn(CC[C@H]2CC[C@@H](NC(=O)C3CCCCC3)[C@@H](CO)O2)nn1`: 0.982 ± 0.11; `C/C=C/c1ccc([C@@H]2[C@H](CO)N3C(=O)CN(C(=O)Nc4cccc(OC)c4)C[C@@H]23)cc1`: 1.07 ± 0.032.
Turning to `CCCN1[C@@H]2c3ccc(-c4ccncc4)c(=O)n3C[C@@H]2[C@@H](CO)[C@@H]1C(=O)NCCCN1CCOCC1`, the viability index was 1.03 ± 0.024.
The same measure for `CO[C@H]1CN(C)C(=O)c2ccc(NS(C)(=O)=O)cc2OC[C@H](C)N(C(=O)CN(C)C)C[C@@H]1C`: 0.991 ± 0.069; for `CC(C)C(=O)Nc1ccc2c(c1)C(=O)N(C)[C@@H]1CC[C@H](CC(=O)NCCc3ccccc3)O[C@@H]1CO2`: 1.04 ± 0.015; for `Cc1ccccc1S(=O)(=O)N1CC[C@@H]2[C@H]1c1cc(-c3ccc(F)cc3)ccc1N[C@@H]2CO`: 1.08 ± 0.033.
The same measure for `O=C(c1cccnc1)N1CC(=O)N2[C@H](CO)[C@H](c3ccc(-c4ccccc4F)cc3)[C@@H]2C1`: 1.06 ± 0.015.
Next, `O=C(NCCN1CCCC1)c1cc2c(c(-c3cccc(C4=CCCC4)c3)n1)[C@@H](CCO)N(CC1CC1)C2`: 0.956 ± 0.14; `COc1ccc2c3c([C@H](CO)NC[C@]33CCN(CC3)S(=O)(=O)c3cccc(C)c3)n(C)c2c1`: 1.01 ± 0.011; `COc1cccc(C(=O)N2C[C@@H]3[C@H](c4ccccc42)[C@@H](CO)N3C(=O)c2cccc(F)c2)c1`: 0.9868 ± 0.0011.
As for `C[C@@H]1CN([C@@H](C)CO)C(=O)CCCn2cc(nn2)CO[C@H]1CN(C)S(=O)(=O)c1cccc(C#N)c1`, the viability index was 1.02 ± 0.02.
The same measure for `CO[C@H](CN(C)C(=O)c1cnccn1)[C@@H](C)CN([C@H](C)CO)S(=O)(=O)c1ccccc1`: 0.9434 ± 0.0018; for `O=C(CN1CCOCC1)N1CCCCN2[C@H](C1)[C@@H](c1ccc(Br)cc1)[C@@H]2CO`: 1.09 ± 0.1; for `CN(C)C(=O)c1cccc(-c2ccc([C@H]3[C@H]4CNC[C@@H]3N4Cc3ccccc3C(F)(F)F)cc2)c1`: 1.06 ± 0.081.
The compound `CCCNC(=O)N1C[C@@]2(C1)CN(Cc1ccc(F)cc1)[C@H](CO)c1[nH]c3cc(OC)ccc3c21` displayed a viability index of 1 ± 0.083.
Next, `N#Cc1cccc(-c2ccc([C@H]3[C@@H]4CN(C(=O)Cc5ccncc5)C[C@H]3N4)cc2)c1`: 1.102 ± 0.011.
Take `CC(C)NC(=O)N1Cc2cc(C(=O)NC3Cc4ccccc4C3)nc(-c3cccc(-c4cccnc4)c3)c2[C@H]1CCO`: the viability index was determined as 0.764 ± 0.091.
The same measure for `CN1CCCCN2[C@H](CO)[C@@H](c3ccc(-c4ccc(F)cc4)cc3)[C@H]2C1`: 0.984 ± 0.093; for `O=C(Cc1ccccn1)N1CC(=O)N2[C@H](C1)[C@@H](c1ccc(C#CCC3CCCC3)cc1)[C@@H]2CO`: 0.95 ± 0.087.
The same measure for `C/C=C/c1ccc([C@@H]2[C@@H](CO)N(C(=O)CN(C)C)C23CN(C(=O)C2CCOCC2)C3)cc1`: 1.07 ± 0.045; for `O=C(Nc1ccccc1F)N1C[C@H]2[C@@H](c3ccccc31)[C@@H](CO)N2C(=O)Cc1cccnc1`: 1.06 ± 0.02.
Next, `O=C(Cc1ccccn1)N1CC(=O)N2[C@@H](CO)[C@H](c3ccc(C#CCC4CCCC4)cc3)[C@@H]2C1`: 1 ± 0.041.
Compound `COc1ccc2c3c([C@H](CO)N(C[C@]33CCN(Cc4nccs4)CC3)C(=O)NC(C)C)n(C)c2c1` returned a viability index of 1.03 ± 0.065.
The same measure for `CN1c2ccc(-c3cccc(C#N)c3)cc2[C@@H]2[C@@H](CCN2C(=O)c2cccc(F)c2)[C@@H]1CO`: 0.994 ± 0.084.

For the origin of these results see the supplement of paper PMC4723716.
